The results in this text go back to article PMC8064142.

Protein sequences, listed by entry. Tags and fused reporters are not part of them.
UniProt Q66K64: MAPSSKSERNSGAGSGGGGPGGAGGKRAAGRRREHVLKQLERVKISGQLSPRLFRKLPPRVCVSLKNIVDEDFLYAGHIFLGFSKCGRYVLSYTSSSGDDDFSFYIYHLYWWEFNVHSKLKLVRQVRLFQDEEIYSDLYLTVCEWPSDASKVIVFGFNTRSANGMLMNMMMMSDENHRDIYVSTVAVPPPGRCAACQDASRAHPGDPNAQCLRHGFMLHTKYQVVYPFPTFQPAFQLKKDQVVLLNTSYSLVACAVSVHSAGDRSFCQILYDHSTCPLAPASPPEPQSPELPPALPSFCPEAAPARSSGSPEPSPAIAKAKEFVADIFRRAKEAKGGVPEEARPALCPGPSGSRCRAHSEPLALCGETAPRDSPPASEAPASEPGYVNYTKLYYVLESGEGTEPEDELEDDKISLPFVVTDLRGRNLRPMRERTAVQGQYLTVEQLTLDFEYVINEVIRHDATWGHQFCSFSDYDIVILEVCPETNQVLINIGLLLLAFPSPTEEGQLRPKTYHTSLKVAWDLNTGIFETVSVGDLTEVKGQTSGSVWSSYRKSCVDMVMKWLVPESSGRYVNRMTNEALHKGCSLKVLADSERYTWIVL

Results are given in words; binding and its absence hold for the method and conditions named. In cells and extracts the contact can be indirect. Some binding calls cover weakened binding; strength is not graded here. Sequences can lack the tags named with a protein.

In this experiment the target is Flag-DCAF15 (human) (UniProt Q66K64). Briefly: co-IP; Flag- and Myc-tagged proteins co-expressed in HEK293T cells; lysed in NP40 buffer; anti-Flag M2 agarose beads at 4°C overnight; eluted with Flag peptide/BC100; Western blot. Background: A western blot detects proteins with antibodies after separation by electrophoresis.

B1: Myc-ZEB1 (full-length) (protein, UniProt P37275 1-1124)
chain: MADGPRCKRRKQANPRRNNVTNYNTVVETNSDSDDEDKLHIVEEESVTDAADCEGVPEDDLPTDQTVLPGRSSEREGNAKNCWEDDRKEGQEILGPEAQADEAGCTVKDDECESDAENEQNHDPNVEEFLQQQDTAVIFPEAPEEDQRQGTPEASGHDENGTPDAFSQLLTCPYCDRGYKRFTSLKEHIKYRHEKNEDNFSCSLCSYTFAYRTQLERHMTSHKSGRDQRHVTQSGCNRKFKCTECGKAFKYKHHLKEHLRIHSGEKPYECPNCKKRFSHSGSYSSHISSKKCISLIPVNGRPRTGLKTSQCSSPSLSASPGSPTRPQIRQKIENKPLQEQLSVNQIKTEPVDYEFKPIVVASGINCSTPLQNGVFTGGGPLQATSSPQGMVQAVVLPTVGLVSPISINLSDIQNVLKVAVDGNVIRQVLENNQANLASKEQETINASPIQQGGHSVISAISLPLVDQDGTTKIIINYSLEQPSQLQVVPQNLKKENPVATNSCKSEKLPEDLTVKSEKDKSFEGGVNDSTCLLCDDCPGDINALPELKHYDLKQPTQPPPLPAAEAEKPESSVSSATGDGNLSPSQPPLKNLLSLLKAYYALNAQPSAEELSKIADSVNLPLDVVKKWFEKMQAGQISVQSSEPSSPEPGKVNIPAKNNDQPQSANANEPQDSTVNLQSPLKMTNSPVLPVGSTTNGSRSSTPSPSPLNLSSSRNTQGYLYTAEGAQEEPQVEPLDLSLPKQQGELLERSTITSVYQNSVYSVQEEPLNLSCAKKEPQKDSCVTDSEPVVNVIPPSANPINIAIPTVTAQLPTIVAIADQNSVPCLRALAANKQTILIPQVAYTYSTTVSPAVQEPPLKVIQPNGNQDERQDTSSEGVSNVEDQNDSDSTPPKKKMRKTENGMYACDLCDKIFQKSSSLLRHKYEHTGKRPHECGICKKAFKHKHHLIEHMRLHSGEKPYQCDKCGKRFSHSGSYSQHMNHRYSYCKREAEERDSTEQEEAGPEILSNEHVGARASPSQGDSDERESLTREEDEDSEKEEEEEDKEMEELQEEKECEKPQGDEEEEEEEEEVEEEEVEEAENEGEEAKTEGLMKDDRAESQASSLGQKVGESSEQVSEEKTNEA
In the case of B1, the binding result was “binds”.

B2: Myc-ZEB1-Δ2 (amino acids 1-781) (domain or fragment, UniProt P37275 1-781)
chain: MADGPRCKRRKQANPRRNNVTNYNTVVETNSDSDDEDKLHIVEEESVTDAADCEGVPEDDLPTDQTVLPGRSSEREGNAKNCWEDDRKEGQEILGPEAQADEAGCTVKDDECESDAENEQNHDPNVEEFLQQQDTAVIFPEAPEEDQRQGTPEASGHDENGTPDAFSQLLTCPYCDRGYKRFTSLKEHIKYRHEKNEDNFSCSLCSYTFAYRTQLERHMTSHKSGRDQRHVTQSGCNRKFKCTECGKAFKYKHHLKEHLRIHSGEKPYECPNCKKRFSHSGSYSSHISSKKCISLIPVNGRPRTGLKTSQCSSPSLSASPGSPTRPQIRQKIENKPLQEQLSVNQIKTEPVDYEFKPIVVASGINCSTPLQNGVFTGGGPLQATSSPQGMVQAVVLPTVGLVSPISINLSDIQNVLKVAVDGNVIRQVLENNQANLASKEQETINASPIQQGGHSVISAISLPLVDQDGTTKIIINYSLEQPSQLQVVPQNLKKENPVATNSCKSEKLPEDLTVKSEKDKSFEGGVNDSTCLLCDDCPGDINALPELKHYDLKQPTQPPPLPAAEAEKPESSVSSATGDGNLSPSQPPLKNLLSLLKAYYALNAQPSAEELSKIADSVNLPLDVVKKWFEKMQAGQISVQSSEPSSPEPGKVNIPAKNNDQPQSANANEPQDSTVNLQSPLKMTNSPVLPVGSTTNGSRSSTPSPSPLNLSSSRNTQGYLYTAEGAQEEPQVEPLDLSLPKQQGELLERSTITSVYQNSVYSVQEEPLNLSCAKKEPQKDS
Regarding B2, the binding entry is “binds”.

B3: Myc-ZEB1-Δ5 (amino acids 782-1124) (domain or fragment, UniProt P37275 782-1124)
chain: CVTDSEPVVNVIPPSANPINIAIPTVTAQLPTIVAIADQNSVPCLRALAANKQTILIPQVAYTYSTTVSPAVQEPPLKVIQPNGNQDERQDTSSEGVSNVEDQNDSDSTPPKKKMRKTENGMYACDLCDKIFQKSSSLLRHKYEHTGKRPHECGICKKAFKHKHHLIEHMRLHSGEKPYQCDKCGKRFSHSGSYSQHMNHRYSYCKREAEERDSTEQEEAGPEILSNEHVGARASPSQGDSDERESLTREEDEDSEKEEEEEDKEMEELQEEKECEKPQGDEEEEEEEEEVEEEEVEEAENEGEEAKTEGLMKDDRAESQASSLGQKVGESSEQVSEEKTNEA
For B3, the binding entry is given as “no binding”.

B4: Myc-ZEB1-Δ3 (amino acids 341-781) (domain or fragment, UniProt P37275 341-781)
chain: LSVNQIKTEPVDYEFKPIVVASGINCSTPLQNGVFTGGGPLQATSSPQGMVQAVVLPTVGLVSPISINLSDIQNVLKVAVDGNVIRQVLENNQANLASKEQETINASPIQQGGHSVISAISLPLVDQDGTTKIIINYSLEQPSQLQVVPQNLKKENPVATNSCKSEKLPEDLTVKSEKDKSFEGGVNDSTCLLCDDCPGDINALPELKHYDLKQPTQPPPLPAAEAEKPESSVSSATGDGNLSPSQPPLKNLLSLLKAYYALNAQPSAEELSKIADSVNLPLDVVKKWFEKMQAGQISVQSSEPSSPEPGKVNIPAKNNDQPQSANANEPQDSTVNLQSPLKMTNSPVLPVGSTTNGSRSSTPSPSPLNLSSSRNTQGYLYTAEGAQEEPQVEPLDLSLPKQQGELLERSTITSVYQNSVYSVQEEPLNLSCAKKEPQKDS
Turning to B4, the binding entry is recorded as “no binding”.

B5: Myc-ZEB1-Δ4 (amino acids 341-1,124) (domain or fragment, UniProt P37275 341-1124)
chain: LSVNQIKTEPVDYEFKPIVVASGINCSTPLQNGVFTGGGPLQATSSPQGMVQAVVLPTVGLVSPISINLSDIQNVLKVAVDGNVIRQVLENNQANLASKEQETINASPIQQGGHSVISAISLPLVDQDGTTKIIINYSLEQPSQLQVVPQNLKKENPVATNSCKSEKLPEDLTVKSEKDKSFEGGVNDSTCLLCDDCPGDINALPELKHYDLKQPTQPPPLPAAEAEKPESSVSSATGDGNLSPSQPPLKNLLSLLKAYYALNAQPSAEELSKIADSVNLPLDVVKKWFEKMQAGQISVQSSEPSSPEPGKVNIPAKNNDQPQSANANEPQDSTVNLQSPLKMTNSPVLPVGSTTNGSRSSTPSPSPLNLSSSRNTQGYLYTAEGAQEEPQVEPLDLSLPKQQGELLERSTITSVYQNSVYSVQEEPLNLSCAKKEPQKDSCVTDSEPVVNVIPPSANPINIAIPTVTAQLPTIVAIADQNSVPCLRALAANKQTILIPQVAYTYSTTVSPAVQEPPLKVIQPNGNQDERQDTSSEGVSNVEDQNDSDSTPPKKKMRKTENGMYACDLCDKIFQKSSSLLRHKYEHTGKRPHECGICKKAFKHKHHLIEHMRLHSGEKPYQCDKCGKRFSHSGSYSQHMNHRYSYCKREAEERDSTEQEEAGPEILSNEHVGARASPSQGDSDERESLTREEDEDSEKEEEEEDKEMEELQEEKECEKPQGDEEEEEEEEEVEEEEVEEAENEGEEAKTEGLMKDDRAESQASSLGQKVGESSEQVSEEKTNEA
B5: the binding result is on record as “no binding”.

B6: Myc-ZEB1-Δ1 (amino acids 1-340) (domain or fragment, UniProt P37275 1-340)
chain: MADGPRCKRRKQANPRRNNVTNYNTVVETNSDSDDEDKLHIVEEESVTDAADCEGVPEDDLPTDQTVLPGRSSEREGNAKNCWEDDRKEGQEILGPEAQADEAGCTVKDDECESDAENEQNHDPNVEEFLQQQDTAVIFPEAPEEDQRQGTPEASGHDENGTPDAFSQLLTCPYCDRGYKRFTSLKEHIKYRHEKNEDNFSCSLCSYTFAYRTQLERHMTSHKSGRDQRHVTQSGCNRKFKCTECGKAFKYKHHLKEHLRIHSGEKPYECPNCKKRFSHSGSYSSHISSKKCISLIPVNGRPRTGLKTSQCSSPSLSASPGSPTRPQIRQKIENKPLQEQ
Consider B6, for which the binding result is “binds”.
